According to PubChem BioAssay AID488969 (Vanderbilt High Throughput Screening Facility, 2010):
Whole data set: some 110,000 compounds, median “z-score” near -0.1, cut for the highest 2% near 2. This is one part of the list. Active and inactive are the calls of the source.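 How the source made its calls: active means z-score in the third read window above 3 or below -3; inactive means the rest.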

Biological target: Metabotropic glutamate receptor 8 (Rattus norvegicus) (UniProt P70579)
Assay: mGluR8 Gi/Go-coupled signaling modulation – cell-based, rat, thallium flux, HTS, primary screen (AID 488969)
Conditions: HEK293 rat mGluR8, GIRK (G protein-gated inwardly rectifying potassium channel) thallium flux, FluoZin2; at 10 µM; stronger effect = higher value; submaximal glutamate (EC20) added with thallium

UniProt P70579, sequence (P70579 whole entry, looked up): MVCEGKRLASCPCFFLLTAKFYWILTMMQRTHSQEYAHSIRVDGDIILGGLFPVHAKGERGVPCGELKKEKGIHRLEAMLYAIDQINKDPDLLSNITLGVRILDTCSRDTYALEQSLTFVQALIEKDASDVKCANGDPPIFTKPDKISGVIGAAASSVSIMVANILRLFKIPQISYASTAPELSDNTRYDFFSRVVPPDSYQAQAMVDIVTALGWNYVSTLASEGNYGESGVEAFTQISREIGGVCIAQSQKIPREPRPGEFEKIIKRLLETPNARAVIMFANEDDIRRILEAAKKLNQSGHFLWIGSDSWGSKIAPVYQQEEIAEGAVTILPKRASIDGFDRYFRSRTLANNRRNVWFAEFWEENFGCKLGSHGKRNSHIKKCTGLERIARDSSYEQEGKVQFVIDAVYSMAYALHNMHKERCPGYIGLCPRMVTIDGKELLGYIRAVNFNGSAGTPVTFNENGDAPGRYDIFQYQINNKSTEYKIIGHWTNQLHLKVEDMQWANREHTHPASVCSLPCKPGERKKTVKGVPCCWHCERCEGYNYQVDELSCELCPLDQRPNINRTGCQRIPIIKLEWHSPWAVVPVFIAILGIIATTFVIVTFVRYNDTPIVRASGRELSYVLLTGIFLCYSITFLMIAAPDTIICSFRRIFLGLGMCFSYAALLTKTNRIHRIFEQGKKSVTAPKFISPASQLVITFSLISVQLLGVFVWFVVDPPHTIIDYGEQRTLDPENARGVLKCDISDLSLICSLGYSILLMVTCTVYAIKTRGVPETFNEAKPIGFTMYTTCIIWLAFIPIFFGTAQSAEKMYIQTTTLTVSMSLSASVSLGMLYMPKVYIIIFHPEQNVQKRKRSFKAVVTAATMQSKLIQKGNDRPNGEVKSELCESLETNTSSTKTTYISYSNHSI

| SMILES | z-score |
| --- | --- |
| CCN(CC)S(=O)(=O)c1ccc(C(=O)Nc2ccc(OCC(=O)N3CCOCC3)cc2)cc1 | -1 |
| C(=C\c1ccco1)/C1=NN(c2ccccc2)C(c2ccco2)C1 (centres undefined) | -0.0665 |
| CCCCNC(=O)C1c2ccccc2C(=O)N(c2ccc(OC)cc2)C1c1ccc(OC)cc1 (centres undefined) | 0.655 |
| Cc1cccc(C(=O)Nc2ncc(CN3CCOCC3)s2)c1 | 0.554 |
| CCc1ccc2oc(-c3cccc(N)c3)nc2c1 | -0.135 |
| OCCc1ccc(-c2ccc(Cl)cc2)o1 | -1.18 |
| O=C(O)c1cccnc1SC1CC(=O)N(CCc2ccccc2)C1=O (centres undefined) | 1.34 |
| O=[N+]([O-])c1cc(S(=O)(=O)N2CCCC2)ccc1NCCc1ccccc1 | -0.133 |
| CN(C)S(=O)(=O)c1cccc(N=c2scc(-c3ccc4c(c3)NC(=O)CO4)n2CC2CCCO2)c1 (centres undefined) | 0.0413 |
| CC(NCc1ccccc1)C1COc2ccccc2O1 (centres undefined) | 0.0779 |
| COC(=O)C1=C(C)N(c2cccc(C)c2)C(=O)/C1=C\c1cccs1 | -0.334 |
| CC(C)c1ccc(-c2nc(N3CCCCCC3)nc3n[nH]c(N)c23)cc1 | -0.0505 |
| CCOC(=O)C1CCc2sc(N)c(C#N)c21 (centres undefined) | 2.38 |
| O=C(NC(NCCCN1CCOCC1)(C(F)(F)F)C(F)(F)F)C1CCCCC1 | 0.0382 |
| CC(C)NC(=O)c1cc(-c2ccco2)on1 | -0.291 |
| COc1ccc(-c2sc(NC(=O)c3ccc(C)cc3)nc2-c2ccc([N+](=O)[O-])cc2)cc1 | 0.0824 |
| COCCn1c(C)cc(C(=O)COC(=O)c2ccc3c(c2)NC(=O)CS3)c1C | -0.422 |
| COc1ccc(CCNS(=O)(=O)c2ccc(C(=O)NCc3ccco3)cc2)cc1OC | 0.0857 |
| CCc1ccc(C(=O)N2CCC(c3nc4ccccc4s3)CC2)cc1 | -0.807 |
| CC(C)NC(=S)Nc1ccc(S(=O)(=O)Nc2ncccn2)cc1 | -0.142 |
| Brc1ccccc1OCCCCCN1CCCC1 | 0.0397 |
| COc1ccc(N(CC(=O)Nc2cc(C(=O)O)ccc2C)S(=O)(=O)c2c(C)noc2C)cc1 | -0.209 |

| SMILES | z-score |
| --- | --- |
| O=C(NCC(=O)N(Cc1cccs1)C(C(=O)NC1CCCCC1)c1cccnc1)c1ccco1 (centres undefined) | -0.0836 |
| CCOc1cccc(CNn2cnnc2)c1OCc1ccccc1 | -0.295 |
| COC(=O)/C(=C/c1cccnc1)NC(=O)c1ccccc1 | -0.0328 |
| Cc1c(C(=O)Nc2nccs2)sc2nc(-c3cccs3)cc(C(F)(F)F)c12 | 0.481 |
| O=C(CCC(=O)OCC(=O)c1ccc(Br)cc1)NC1CCCCC1 | 0.0955 |
| O=C(Nc1ccccc1C(=O)N1CCOCC1)C1CC(=O)N(C2CCCC2)C1 (centres undefined) | 0.382 |
| Clc1ccc2nc(CSc3nncn3-c3ccccc3)cn2c1 | 0.296 |
| CCOC(=O)c1sc(/N=C/c2c(C)[nH]n(-c3ccccc3)c2=O)c(C#N)c1C | -0.156 |
| CCOC(=O)c1c(CN2CCOCC2)n(-c2ccccc2)c2cc(Br)c(O)c(CN(C)C)c12 | -0.781 |
| CCOc1c2ccc(C(=O)NCC34CC5CC(CC(C5)C3)C4)cc2nn1CC | -0.279 |
| CC(=O)NC1=NN(C(C)=O)C2(S1)C(=O)N(C(C)C)c1ccc(C)cc12 (centres undefined) | -0.286 |
| COC(=O)C(C)n1cnc2c(nnn2-c2cccc(Cl)c2)c1=O (centres undefined) | -0.535 |
| CSCCC(NC(=O)c1cccc(S(=O)(=O)N2CCOCC2)c1)C(=O)Nc1ccc(F)cc1 (centres undefined) | 0.0957 |
| CC1=C(C(=O)OC(C)C)C(c2ccc(F)cc2)NC(=O)N1 (centres undefined) | -0.631 |
| Cc1ccc2nc(Nc3ccccc3)c(/C=N/O)c(=O)n2c1 | -0.745 |
| CCNC(=O)CN(C1CCCCC1)S(=O)(=O)c1ccc(F)cc1 | -0.185 |
| CC(=O)c1c(N2CCN(C)CC2)[nH]c(-c2ccccc2)nc1=S | 0.167 |
| COCCN(C(=O)C1CCC1)c1nnc(-c2cccnc2)s1 | 0.0298 |
| Clc1ccc(-n2nnnc2Sc2ncnc3sccc23)cc1 | -1.84 |
| CCOC(=O)c1c(CN2CCCCC2)n(C)c2cc(Br)c(O)c(CN(C)C)c12 | -0.436 |
| Cc1ccc(N=C(NOC(=O)c2ccccc2)c2nonc2N)c(C)c1 | -0.261 |
| c1ccn2c(SCc3cn4ccsc4n3)nnc2c1 | 1.12 |

| SMILES | z-score |
| --- | --- |
| C=CCn1c(COc2cccc3ccc(C)nc23)nnc1SCC(N)=O | 0.223 |
| O=S(=O)(c1ccc(Cl)cc1Br)N1CCCCC1 | -0.285 |
| Cc1ccccc1NC(=O)CN1CCC(n2nnc3ccccc32)CC1 | 0.471 |
| O=C(NCCCN1CCOCC1)c1ccc(CS(=O)(=O)Cc2ccc(Cl)cc2)o1 | -0.32 |
| Cn1cccc1C(=O)NC(=O)CSc1cccc[n+]1[O-] | 0.315 |
| C/C(=C\C(=O)O)C12CC3CC(CC(C3)C1)C2 | -0.203 |
| C=CCn1c(COc2ccc(Cl)cc2)nnc1SCC(=O)N/N=C/c1cccc(O)c1 | -0.279 |
| COCCn1c(SCC(=O)NCc2ccco2)nnc1-c1c[nH]c2ccccc12 | -0.298 |
| COc1ccc2c(C)c(C(=O)NCC(C)O)oc2c1OC (centres undefined) | -0.0493 |
| Cc1nc2c(cc1C(=O)N/N=C/c1ccc(O)c(O)c1)c(=O)n(C)c(=O)n2C | -0.121 |
| COC(=O)CNC(=O)CNC(=O)c1nn(-c2ccc(OC)c(Cl)c2)c(=O)c2ccccc12 | -0.177 |
| C=CCNCCOc1cccc(Br)c1 | -0.00148 |
| O=C(CCNC(=O)c1ccc(Br)o1)NCc1ccc(Cl)cc1 | 0.592 |
| CCOc1ccc(NC(=O)Cn2nnc(-c3ccccc3F)n2)cc1 | active: 3.4 |
| CCCCN1C(=O)NC(NS(=O)(=O)c2ccc(N)cc2)(C(F)(F)F)C1=O (centres undefined) | 0.213 |
| Cc1cccc(-c2nc3c(c(SCC(=O)N4CCOCC4)n2)CCCC3)c1 | -0.678 |
| Cc1ccc(CCN2CC(C(=O)NCCCN3CCOCC3)CC2=O)cc1 (centres undefined) | -0.517 |
| CS(=O)(=O)N1CCN(C(=O)CCC2CCCC2)CC1 | -0.239 |
| CCN(C(=O)c1cccc(F)c1)c1ccccc1C | -0.249 |
| CCc1ccc2[nH]c(=O)c(CN(CCN(C)C)C(=O)Nc3ccccc3OC)cc2c1 | 0.133 |
| Nn1cnnc1N/N=C\c1ccc(-c2ccccc2[N+](=O)[O-])o1 | -0.277 |
| O=C(Cc1cccs1)N/N=C/c1ccco1 | 0.212 |

| SMILES | z-score |
| --- | --- |
| COc1ccc(N2C(=O)C3C4C=CC(C4)C3C2=O)nn1 (centres undefined) | -0.972 |
| Nc1ccccc1N1CCOCC1 | 0.0932 |
| Cc1[nH]nc(SCC(=O)NCc2ccccc2)c1[N+](=O)[O-] | 0.0569 |
| C=CCN1C(=NC(=O)CCCC(=O)O)SC2CS(=O)(=O)CC21 (centres undefined) | 1.68 |
| CCc1ccccc1N(CC)C(=O)CCc1nc(-c2ccc(C)cc2)no1 | -0.0345 |
| Cn1c(=O)c2cc(S(=O)(=O)NC(C(=O)Nc3cccnc3)c3ccccc3)ccc2n(C)c1=O (centres undefined) | 0.112 |
| COc1cc(C(C(=O)NC(C)(C)C)N(Cc2ccc3c(c2)OCO3)C(=O)c2cnccn2)cc(OC)c1OC (centres undefined) | 0.387 |
| COc1ccc2c(c1)C(C1=C(O)CC(C)(C)CC1=O)C1=C(CC(C)(C)CC1=O)O2 (centres undefined) | 0.577 |
| O=C(CC1CCCCC1)N1CCCC(c2nc(-c3ccc(S(=O)(=O)N4CCCC4)cc3)no2)C1 (centres undefined) | -0.761 |
| CSc1nc2ccccc2cc1/C=C(\C#N)c1cccc(Cl)c1 | 0.938 |
| CCOc1ccccc1CN1CCC(O)CC1 | -0.206 |
| CC1(C)CC2(CCO1)N1CC3(C)CN2CC(C)(C1)C3O (centres undefined) | 0.0449 |
| O=C(Nc1ccccc1)NC1(C(=O)NCc2cccs2)CCCCC1 | 0.44 |
| COCCOc1ccc(C(F)(F)F)cc1NC(=O)c1ccc(F)cc1 | 0.0245 |
| O=C(NCc1ccccc1)C1CCN(S(=O)(=O)c2cc([N+](=O)[O-])ccc2Cl)CC1 | -0.106 |
| CC(=O)c1cnc2c(-c3ccccc3)c(C)nn2c1C | 0.132 |
| Cc1ccc2cc3c(N)c(C(=O)Nc4c(C)[nH]c(=O)[nH]c4=O)sc3nc2c1 | 0.275 |
| Cc1cc(NC(=O)c2cccc(S(=O)(=O)N(C)C)c2)n(-c2ccccn2)n1 | -0.588 |
| CCOC(=O)c1nnc(-c2cccs2)nc1Oc1ccc(Cl)cc1 | 0.547 |
| CN(Cc1ccc(F)cc1)C(=O)COc1ccccc1-c1ccccc1 | -0.241 |
| CCOC(=O)c1sc(Nc2nc3ccc(OC)cc3s2)cc1C | -0.193 |
| Cc1cc(C)cc(-n2nc(C)cc2N)c1 | 0.834 |

| SMILES | z-score |
| --- | --- |
| CC(=O)Nc1ccc(S(=O)(=O)Nc2nc3ccccc3nc2Nc2ccc(S(N)(=O)=O)cc2)cc1 | -0.462 |
| O=C(CCn1cnc2ccccc2c1=O)Nc1ccc(S(=O)(=O)N2CCCC2)cc1 | -1.13 |
| O=C(Nc1nc2ccc(Oc3ccccc3)cc2s1)c1cc([N+](=O)[O-])ccc1N1CCOCC1 | -0.0951 |
| O=C(NCCc1c[nH]c2ccccc12)c1cccc(S(=O)(=O)Nc2ccccc2Cl)c1 | -0.649 |
| CCc1ccc(NC(=S)N(CCN2CCCCC2)Cc2ccco2)cc1 | -0.468 |
| CN(C)CCCNc1cc(Cl)c(S(=O)(=O)N2CCCCC2)cc1C(=O)O | -0.126 |
| CSc1ccccc1C(=O)NCCSc1ccccc1 | -0.165 |
| COc1ccccc1N1CCN(C(=O)N2CCOCC2)CC1 | -0.3 |
| Cc1ccc(C(=O)OC2=CC(=O)CC(C)(C)C2)cc1 | -0.57 |
| CC(=O)Oc1ccc(C(=O)Nc2ccc3c(c2)C(=O)N(CCC(=O)O)C3=O)cc1 | -0.214 |
| COc1cc(CNn2cnnc2)ccc1OCC(=O)NC(C)(C)C | -0.0725 |
| Cc1ccc(S(=O)(=O)NCCN=C(CN2CCCC2)NS(=O)(=O)c2ccc(C)cc2)cc1 | -0.158 |
| COC(=O)c1sc(NC(=O)c2cc(-c3ccccc3)nc3ccccc23)c(C#N)c1C | 0.159 |
| Cc1c(C(=O)O)[nH]c2c1C(=O)CC(c1ccc(Cl)cc1)C2 (centres undefined) | active: 5.28 |
| O=C(N1CCOCC1)N(CCN1CCOCC1)Cc1cccc(Cl)c1 | -0.0977 |
| CCOC(=O)c1ccccc1NC(=O)CSc1nccn1C | -0.57 |
| Cn1c(=O)cc(OCC(=O)N2CCN(c3cccc(C(F)(F)F)c3)CC2)c2ccccc21 | 0.285 |
| COc1ccc(CC(=O)N2CCN=C2SC)cc1 | -0.0874 |
| CCN(CC)c1ccc(C=Nc2ccccc2)c(O)c1 | -0.215 |
| CC(C)c1nnc(SCc2ccc(CSc3nnc(C(C)C)n3N)cc2)n1N | 0.149 |
| CC(=O)c1c(C)[nH]c(C(=O)Nc2cccc(S(=O)(=O)N3CCOCC3)c2)c1C | -0.183 |
